In the supplement of paper PMC11741623:
This is one part of the list. Interaction screen of human proteins with wild-type SARS-CoV-2 proteins by split-DHFR complementation in yeast, 1 µg/mL methotrexate. Value = fitness of the pair (three or more lineages) minus that of the viral protein without a human partner, on a scale set by negative (0) and fused positive (1) controls, mean of up to three cultures; higher = more likely to interact. Active = false discovery rate below 0.05 (one-sided t-test) in at least one culture. Nearly all pairs are not hits, and differences among them are mostly noise (correlation between cultures about 0.3); most hits were seen in one culture only. Human sequences are the Swiss-Prot entries looked up by gene name; the clone may be another isoform. NSP2 values were corrected by the authors for a growth advantage. Listed are human proteins with a hit and a random twelfth of the others.

Legend:
Assay in all cases: yeast fitness gain over the viral ORF with no human partner (scaled fitness); higher = more likely to interact
SARS-CoV-2 NSP1 = molecular target: SARS-CoV-2 NSP1
Description: (§1)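 Split mouse DHFR complementation in pooled diploid yeast: human ORFeome clones carry one fragment and viral ORFs the other; barcoded lineages compete in 1 µg/mL methotrexate and fitness is read by barcode sequencing in up to three cultures.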

SARS-CoV-2 NSP10 = molecular target: SARS-CoV-2 NSP10
Description: as §1

SARS-CoV-2 NSP12 = molecular target: SARS-CoV-2 NSP12
Description: as §1

SARS-CoV-2 NSP13 = molecular target: SARS-CoV-2 NSP13
Description: as §1

SARS-CoV-2 NSP14 = molecular target: SARS-CoV-2 NSP14
Description: as §1

SARS-CoV-2 NSP15 = molecular target: SARS-CoV-2 NSP15
Description: as §1

SARS-CoV-2 NSP16 = molecular target: SARS-CoV-2 NSP16
Description: as §1

SARS-CoV-2 NSP2 = molecular target: SARS-CoV-2 NSP2
Description: as §1

SARS-CoV-2 NSP4 = molecular target: SARS-CoV-2 NSP4
Description: as §1

SARS-CoV-2 NSP5 = molecular target: SARS-CoV-2 NSP5
Description: as §1

SARS-CoV-2 NSP6 = molecular target: SARS-CoV-2 NSP6
Description: as §1

SARS-CoV-2 NSP7 = molecular target: SARS-CoV-2 NSP7
Description: as §1

SARS-CoV-2 NSP8 = molecular target: SARS-CoV-2 NSP8
Description: as §1

SARS-CoV-2 NSP9 = molecular target: SARS-CoV-2 NSP9
Description: as §1

SARS-CoV-2 ORF10 = molecular target: SARS-CoV-2 ORF10
Description: as §1

SARS-CoV-2 ORF3A = molecular target: SARS-CoV-2 ORF3A
Description: as §1

SARS-CoV-2 ORF3B = molecular target: SARS-CoV-2 ORF3B
Description: as §1

SARS-CoV-2 ORF6 = molecular target: SARS-CoV-2 ORF6
Description: as §1

SARS-CoV-2 ORF7A = molecular target: SARS-CoV-2 ORF7A
Description: as §1

SARS-CoV-2 ORF7B = molecular target: SARS-CoV-2 ORF7B
Description: as §1

SARS-CoV-2 ORF8 = molecular target: SARS-CoV-2 ORF8
Description: as §1

SARS-CoV-2 ORF9B = molecular target: SARS-CoV-2 ORF9B
Description: as §1

SARS-CoV-2 S = molecular target: SARS-CoV-2 S
Description: as §1

Measured: yeast fitness gain

B1: HFE2, Q6ZVN8 (protein)
chain: MGEPGQSPSPRSSHGSPPTLSTLTLLLLLCGHAHSQCKILRCNAEYVSSTLSLRGGGSSGALRGGGGGGRGGGVGSGGLCRALRSYALCTRRTARTCRGDLAFHSAVHGIEDLMIQHNCSRQGPTAPPPPRGPALPGAGSGLPAPDPCDYEGRFSRLHGRPPGFLHCASFGDPHVRSFHHHFHTCRVQGAWPLLDNDFLFVQATSSPMALGANATATRKLTIIFKNMQECIDQKVYQAEVDNLPVAFEDGSINGGDRPGGSSLSIQTANPGNHVEIQAAYIGTTIIIRQTAGQLSFSIKVAEDVAMAFSAEQDLQLCVGGCPPSQRLSRSERNRRGAITIDTARRLCKEGLPVEDAYFHSCVFDVLISGDPNFTVAAQAALEDARAFLPDLEKLHLFPSDAGVPLSSATLLAPLLSGLFVLWLCIQ
inactive: SARS-CoV-2 NSP1 = 0.0291 | SARS-CoV-2 NSP10 = -0.00355 | SARS-CoV-2 NSP12 = 0.0467 | SARS-CoV-2 NSP13 = -0.00299 | SARS-CoV-2 NSP14 = -0.15 | SARS-CoV-2 NSP15 = -0.0371 | SARS-CoV-2 NSP16 = -0.0118 | SARS-CoV-2 NSP2 = -0.122 | SARS-CoV-2 NSP4 = 0.143 | SARS-CoV-2 NSP5 = 0.00641 | SARS-CoV-2 NSP6 = 0.0761 | SARS-CoV-2 NSP7 = 0.083 | SARS-CoV-2 NSP8 = 0.0219 | SARS-CoV-2 NSP9 = 0.0465 | SARS-CoV-2 ORF10 = 0.0434 | SARS-CoV-2 ORF3A 0.0189 | SARS-CoV-2 ORF3B 0.0116 | SARS-CoV-2 ORF6 = 0.062 | SARS-CoV-2 ORF7A -0.0403 | SARS-CoV-2 ORF7B -0.0023 | SARS-CoV-2 ORF8 = -0.0126 | SARS-CoV-2 ORF9B 0.0279 | SARS-CoV-2 S -0.145

B2: OAS2, P29728 (protein)
chain: MGNGESQLSSVPAQKLGWFIQEYLKPYEECQTLIDEMVNTICDVLQEPEQFPLVQGVAIGGSYGRKTVLRGNSDGTLVLFFSDLKQFQDQKRSQRDILDKTGDKLKFCLFTKWLKNNFEIQKSLDGFTIQVFTKNQRISFEVLAAFNALSLNDNPSPWIYRELKRSLDKTNASPGEFAVCFTELQQKFFDNRPGKLKDLILLIKHWHQQCQKKIKDLPSLSPYALELLTVYAWEQGCRKDNFDIAEGVRTVLELIKCQEKLCIYWMVNYNFEDETIRNILLHQLQSARPVILDPVDPTNNVSGDKICWQWLKKEAQTWLTSPNLDNELPAPSWNVLPAPLFTTPGHLLDKFIKEFLQPNKCFLEQIDSAVNIIRTFLKENCFRQSTAKIQIVRGGSTAKGTALKTGSDADLVVFHNSLKSYTSQKNERHKIVKEIHEQLKAFWREKEEELEVSFEPPKWKAPRVLSFSLKSKVLNESVSFDVLPAFNALGQLSSGSTPSPEVYAGLIDLYKSSDLPGGEFSTCFTVLQRNFIRSRPTKLKDLIRLVKHWYKECERKLKPKGSLPPKYALELLTIYAWEQGSGVPDFDTAEGFRTVLELVTQYQQLCIFWKVNYNFEDETVRKFLLSQLQKTRPVILDPAEPTGDVGGGDRWCWHLLAKEAKEWLSSPCFKDGTGNPIPPWKVPTMQTPGSCGARIHPIVNEMFSSRSHRILNNNSKRNF
inactive: SARS-CoV-2 NSP1 = 0.00659 | SARS-CoV-2 NSP12 = 0.0432 | SARS-CoV-2 NSP13 = 0.00913 | SARS-CoV-2 NSP2 = 0.0469 | SARS-CoV-2 NSP7 = 0.0226 | SARS-CoV-2 NSP8 = 0.127 | SARS-CoV-2 ORF10 = -0.115 | SARS-CoV-2 ORF3B -0.0647 | SARS-CoV-2 ORF6 = 0.0315 | SARS-CoV-2 ORF7A 0.0147 | SARS-CoV-2 ORF7B 0.197 | SARS-CoV-2 ORF8 = -0.00672 | SARS-CoV-2 ORF9B -0.0348 | SARS-CoV-2 S -0.0447

B3: WBP2NL, Q6ICG8 (protein)
chain: MAVNQSHTENRRGALIPNGESLLKRSPNVELSFPQRSEGSNVFSGRKTGTLFLTSYRVIFITSCSISDPMLSFMMPFDLMTNLTVEQPVFAANFIKGTIQAAPYGGWEGQATFKLVFRNGDAIEFAQLMVKAASAAARGFPLRTLNDWFSSMGIYVITGEGNMCTPQMPCSVIVYGAPPAGYGAPPPGYGAPPAGYGAQPVGNEGPPVGYRASPVRYGAPPLGYGAPPAGYGAPPLGYGAPPLGYGTPPLGYGAPPLGYGAPPAGNEGPPAGYRASPAGSGARPQESTAAQAPENEASLPSASSSQVHS
inactive: SARS-CoV-2 NSP1 = -0.14 | SARS-CoV-2 NSP10 = -0.259 | SARS-CoV-2 NSP12 = -0.297 | SARS-CoV-2 NSP13 = 0.0104 | SARS-CoV-2 NSP2 = -0.128 | SARS-CoV-2 NSP5 = 0.026 | SARS-CoV-2 ORF10 = 0.0677 | SARS-CoV-2 ORF6 = -0.407 | SARS-CoV-2 ORF7A 0.0418 | SARS-CoV-2 ORF8 = -0.0243 | SARS-CoV-2 ORF9B 0.218

B4: FKBPL, Q9UIM3 (protein)
chain: METPPVNTIGEKDTSQPQQEWEKNLRENLDSVIQIRQQPRDPPTETLELEVSPDPASQILEHTQGAEKLVAELEGDSHKSHGSTSQMPEALQASDLWYCPDGSFVKKIVIRGHGLDKPKLGSCCRVLALGFPFGSGPPEGWTELTMGVGPWREETWGELIEKCLESMCQGEEAELQLPGHSGPPVRLTLASFTQGRDSWELETSEKEALAREERARGTELFRAGNPEGAARCYGRALRLLLTLPPPGPPERTVLHANLAACQLLLGQPQLAAQSCDRVLEREPGHLKALYRRGVAQAALGNLEKATADLKKVLAIDPKNRAAQEELGKVVIQGKNQDAGLAQGLRKMFG
inactive: SARS-CoV-2 NSP1 = -0.00227 | SARS-CoV-2 NSP10 = -0.0956 | SARS-CoV-2 NSP12 = -0.0171 | SARS-CoV-2 NSP13 = 0.023 | SARS-CoV-2 NSP2 = -0.0622 | SARS-CoV-2 NSP7 = 0.0178 | SARS-CoV-2 NSP8 = 0.0512 | SARS-CoV-2 ORF10 = -0.0945 | SARS-CoV-2 ORF3A -0.12 | SARS-CoV-2 ORF3B -0.0426 | SARS-CoV-2 ORF6 = 0.0278 | SARS-CoV-2 ORF7B 0.0168 | SARS-CoV-2 ORF8 = -0.0299 | SARS-CoV-2 ORF9B 0.0545 | SARS-CoV-2 S -0.00626
